Experimental data taken from PubChem BioAssay AID686971 (National Center for Advancing Translational Sciences (NCATS), 2013).
Among all 360,000 compounds or so, about 7,500 (2.1%) were called active. The shares of active, inactive and inconclusive entries below differ from those in the screen. Calls come from the whole dose curve; as a rule, active = well fitted cell-killing curve with a large enough effect; inconclusive = small, poorly fitted or top-dose-only effect, or effect the other way, or another doubt; inactive = no such curve, though single readings can be large or run the other way. Potencies of inconclusive entries are left out as doubtful fits.

Test: qHTS for induction of synthetic lethality in tumor cells producing 2HG: qHTS for the HT-1080-IDH1KD cell line;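 for activity, negative = toxicity: 0% = DMSO wells and -100% = cell-free medium wells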
Details: HT-1080 IDH1 knockdown viability, ATP luminescence, 48 h; activity, negative = toxicity: at 46.1 µM (top of the series) unless noted
In short: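 Assay cells: HT-1080 with IDH1 knockdown, 750 per well, RPMI/5% FBS. Exposure: 48 h at 37 °C following 2 h pre-incubation. Read: CellTiter-Glo luminescence; fitted concentration-response, curve class assigned.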
Potency is the fitted concentration of half-maximal effect; tags give direction and shape of the fitted curve.

| Compound | Potency | activity, negative = toxicity |
| --- | --- | --- |
| O=C(Nc1ccncc1)c1cc2ccccc2cc1O | inconclusive [cytotoxic, single point] |  |
| Clc1ccc(-c2cnc3n2CCC3)cc1 | inconclusive [cytotoxic, single point] |  |
| Cc1ccccc1OCC(=O)Nc1sc2c(c1C#N)CC(C)(C)NC2(C)C | inconclusive [cytotoxic, partial curve] |  |
| CCCCc1c(-c2ccc(Cl)cc2)ncn1CCc1ccccc1OC | inconclusive [cytotoxic, single point] |  |
| Cc1c(C(=O)NN2CCOCC2)oc2c1ccc1ccccc12 |  | inactive: 21.3% |
| COc1ccc(NC(=O)c2cccc(Oc3ccc([N+](=O)[O-])cc3Cl)c2)cc1 | inconclusive [cytotoxic, full curve] |  |
| O=C(COc1ccccc1)N1c2ccccc2Sc2ccccc21 | inconclusive [cytotoxic, full curve, poor fit] |  |
| Cc1ccc(S(=O)(=O)c2nc(-c3ccccc3Cl)oc2N(C)C)cc1 | inconclusive [cytotoxic, single point] |  |
| Cc1ccnc(Nc2nc(-c3ccccc3)cs2)c1 | inconclusive [cytotoxic, single point] |  |
| O=C1Nc2ccccc2-n2nnnc2C1N1CCN(c2ccc(F)cc2)CC1 (centres undefined) | inconclusive [cytotoxic, partial curve] |  |
| Cc1c(-c2ccc(F)cc2)nc(N)c(C#N)c1-c1ccco1 | active: 12.6 µM |  |
| Cc1nc([N+](=O)[O-])c(Br)n1CC(=O)c1ccc2ccccc2c1 | inconclusive [cytotoxic, single point] |  |
| CC(C)(C)NC(=O)C(CCc1ccccc1)n1c(=O)c(-c2cc3ccccc3[nH]2)nc2ccccc21 (centres undefined) | inconclusive [cytotoxic, single point] |  |
| CCc1nnc(NC(=O)C2CCCCN2S(=O)(=O)c2ccccc2)s1 (centres undefined) |  | inactive: -1.7% |
| C[C@@]12C(=O)OC(=O)[C@]1(C)C1CCC2O1 | active: 1.46 µM |  |
| Cc1ccc2c(c1)CCCN2C(=O)CCc1nc2ccccc2c(=O)[nH]1 | inconclusive [cytotoxic, full curve] |  |
| Cc1cccc(-c2nc3c(c(SCC(=O)N4CCOCC4)n2)Cc2c(CO)cnc(C)c2O3)c1 | inconclusive [cytotoxic, single point] |  |
| Clc1ccc2c(NCCNC3CCCCC3)ccnc2c1 | active: 20.6 µM |  |
| CCc1cc2c(COC(=O)c3cccc(NS(C)(=O)=O)c3)cc(=O)oc2cc1O | inconclusive [cytotoxic, partial curve] |  |
| COC(=O)c1ccc(N=c2sc(C(=O)OC)cc(=O)n2C)cc1 |  | inactive: 8.99% |
| O=C1C=C(Nc2ccccc2O)c2ccccc2C1=O | inconclusive [cytotoxic, single point] |  |
| COC(=O)Nc1nc2c(C)cccc2s1 | inconclusive [cytotoxic, single point] |  |
| COc1ccc(C(=O)OCC(=O)NC2CC2)cc1S(=O)(=O)Nc1ccc(C)cc1 |  | inactive: -0.823% |

| Compound | Potency | activity, negative = toxicity |
| --- | --- | --- |
| Cc1noc(C)c1COc1cccc(C(=O)OC(C)C(=O)Nc2ccc3c(c2)OCO3)c1 (centres undefined) | active: 5.01 µM |  |
| COc1cc(C(=S)N2CCCCC2)ccc1O |  | inactive: 11.5% |
| COc1ccc(-n2cc(-c3ccc(Cl)cc3)[nH]c2=S)cc1 |  | inactive: -10.2% |
| COC(=O)c1cc(=O)nc(NN=C2c3ccccc3-c3ccccc32)s1 | inconclusive [cytotoxic, partial curve] |  |
| C/C(=N/NC(=O)CNC(=O)c1ccc2c(c1)OCO2)c1ccc2c(c1)CCCC2 | inconclusive [cytotoxic, single point] |  |
| CC1=C(C(=O)OC(C)C)C(c2cccs2)C(C(=O)OC(C)C)=C(C)N1 | inconclusive [cytotoxic, single point] |  |
| CSc1nc(N)nc2c1ncn2CC(=O)NCCNc1ccc([N+](=O)[O-])cn1 |  | inactive: 7.7% |
| Cc1ccc(S(=O)(=O)N(C)C)cc1NC(=O)COC(=O)c1sc2cc(Cl)ccc2c1Cl |  | inactive: 7.05% |
| CC(=O)Nc1ccc(NC(=O)c2ccc(NS(=O)(=O)c3cc(C(C)(C)C)cc(C)c3C)cc2)cc1 | inconclusive [cytotoxic, single point] |  |
| Oc1ccc(CNc2ccc(F)cc2)c2cccnc12 | active: 18.4 µM |  |
| Cc1onc(C(=O)NN)c1C(=O)Nc1ncc(C(F)(F)F)cc1Cl |  | inconclusive: -30.6% [cytotoxic] |
| O=C(c1cc([N+](=O)[O-])ccc1N1CCCCC1)N1CCc2ccccc21 | active: 2.31 µM |  |
| CC(=O)Nc1ccc(Oc2cnc3ccccc3n2)cc1 | active: 2.59 µM |  |
| CN1CCN(C2=Cc3ccccc3Sc3cc(F)ccc32)CC1 | inconclusive [cytotoxic, single point] |  |
| CCN(CC)CCSc1nnc2c3cc(F)ccc3n(Cc3ccccc3)c2n1 | inconclusive [cytotoxic, single point] |  |
| c1ccc(-c2csc3ncnc(NCCN4CCOCC4)c23)cc1 | inconclusive [cytotoxic, single point] |  |
| S=C(Nc1cccc2ccccc12)NC1CCCCC1 |  | inactive: -9.7% |
| O=C(NC1CC1)c1cccc(Nc2ccc(-c3ccc4c(c3)OCCO4)nn2)c1 | inconclusive [cytotoxic, single point] |  |
| O=[N+]([O-])c1cc(/C=N/NC(=S)Nc2ccccc2Cl)ccc1Cl | inconclusive [cytotoxic, single point] |  |
| O=C(NC12CC3CC(CC(C3)C1)C2)c1ccc(-c2ccc(Br)cc2)o1 | inconclusive [cytotoxic, single point] |  |
| CC(=O)Nc1ccc(S(=O)(=O)N2CCN(c3cccc(C)c3C)CC2)cc1 | inconclusive [cytotoxic, single point] |  |
| O=C(c1ccccc1)N1CCN(C2C3CC4CC(C3)CC2C4)CC1 (centres undefined) | inconclusive [cytotoxic, single point] |  |
| OC(CN1CCN(c2ccccn2)CC1)Cn1c2ccc(Cl)cc2c2cc(Cl)ccc21 (centres undefined) | active: 16.4 µM |  |

| Compound | Potency | activity, negative = toxicity |
| --- | --- | --- |
| COc1ccccc1C(=O)Nc1cccc(C(=O)c2ccccc2)c1 |  | inactive: 14.5% |
| CCOc1ccccc1CN1CCCC(C(=O)Nc2cccc(-n3cccn3)c2)C1 (centres undefined) | active: 23.1 µM |  |
| COC(=O)CN1C(=S)N(c2ccc(Cl)cc2)C(=O)C1CC(=O)Nc1ccc(Cl)cc1 (centres undefined) | inconclusive [cytotoxic, single point] |  |
| CN(c1ccccc1)S(=O)(=O)c1ccc(NC(=O)c2cccs2)cc1 | inconclusive [cytotoxic, partial curve] |  |
| CCOC(=O)c1c(CSC(=N)N)n(-c2ccccc2)c2cc(Br)c(OC(C)=O)cc12 | inconclusive [cytotoxic, single point] |  |
| O=C(Nc1ccc2oc(=O)ccc2c1)c1ccc(-c2cccc([N+](=O)[O-])c2)o1 | active: 8.2 µM |  |
| C/C(=N\NC(N)=S)c1cc(-c2ccccc2)c(-c2ccccc2)s1 | inconclusive [cytotoxic, single point] |  |
| CCOC(=O)C1CCN(C(=O)Nc2ccc3oc(C)nc3c2)CC1 | inconclusive [rising, single point] |  |
| CSc1cccc(NC(=S)N2CCCN(Cc3ccc(F)cc3)C2)c1 | inconclusive [cytotoxic, partial curve] |  |
| O=C(O)c1[nH]c2ccccc2c1C(c1ccccc1)c1c(C(=O)O)[nH]c2ccccc12 |  | inactive: -1.04% |
| CCCCn1c(-c2csc3c2CCC(C)C3)n[nH]c1=S (centres undefined) | inconclusive [cytotoxic, single point] |  |
| Cc1ccc(S(=O)(=O)/N=C2/C=C(C3C(=O)CC(C)(C)CC3=O)C(=O)c3ccccc32)cc1 | inconclusive [cytotoxic, single point] |  |
| CC(=NNC(=S)N1CCCCCC1)c1cccc2cccnc12 | inconclusive [cytotoxic, single point] |  |
| O=C(COC(=O)C1CCN(S(=O)(=O)c2ccc(Cl)c(C(F)(F)F)c2)CC1)NCc1ccco1 |  | inactive: 2% |
| CCOc1ccc(NC(=O)C2CCN(S(=O)(=O)c3c(C)noc3C)CC2)cc1 | inconclusive [cytotoxic, single point] |  |
| COc1cccc(CNCC(O)COc2ccc(C(=O)c3ccccc3)cc2)c1 (centres undefined) | inconclusive [cytotoxic, partial curve] |  |
| CC(C)C(N)c1csc(NC(=O)Nc2cccc(Cl)c2)n1 (centres undefined) | inconclusive [cytotoxic, single point] |  |
| CCC(C)N1C(=O)S/C(=C/c2ccc(Sc3nc4ccccc4[nH]3)o2)C1=O (centres undefined) | inconclusive [cytotoxic, single point] |  |
| O=c1c(-c2ccco2)nc2ccccc2n1C(c1ccccc1)c1nc2ccccc2[nH]1 (centres undefined) | inconclusive [cytotoxic, single point] |  |
| CCc1ccc(NC(=O)NC2CCCCCCC2)cc1 | inconclusive [cytotoxic, single point] |  |
| NC(=O)C(c1ccc(Cl)cc1)c1ccc(Sc2ccccc2)nn1 (centres undefined) | inconclusive [cytotoxic, partial curve] |  |
| C=CCn1c(NC(=O)c2ccc(C)cc2)c(C#N)sc1=N | inconclusive [rising, full curve, poor fit] |  |
| O=C(Nc1ccc(S(=O)(=O)N2CCc3ccccc32)cc1)c1ccc2c(c1)OCO2 | inconclusive [cytotoxic, partial curve] |  |
